Measurements reported in article PMC5019376.
Numbering of substitutions follows the chain as printed. Names and notes keep the numbering of the source. No constants are given. Whether binding was seen depends on the method and setting. For some assays here: Binding seen in cells or lysates may run through a third protein. Some entries that bind do so weakly or less than the wild type. Where a sequence is shown, tags or fusion partners need not be part of it. One block for each binder: values may come before it.

What was measured:
[1] = molecular target: COI1, BiFC fusion (Arabidopsis) (UniProt O04197); test: split reporter; BiFC after transient expression in Nicotiana benthamiana leaves, confocal imaging; some TIR1-TIR1 samples with co-expressed Myc:ASK1 and 100 uM CHX
[2] = molecular target: COI1, yeast two-hybrid fusion (Arabidopsis) (UniProt O04197); test: two-hybrid; yeast MaV203, ProQuest vectors pDEST32 (DB) and pDEST22 (AD); growth without histidine with 3-AT; TIR1-TIR1 also with co-expressed Aux/IAA3 and 25 uM indole-3-acetic acid
[3] = molecular target: TIR1 (wild type, yeast two-hybrid fusion) (Arabidopsis) (UniProt Q570C0); test: as above
[4] = molecular target: T1, TIR1 (wild type, epitope-tagged, expressed in Nicotiana) (Arabidopsis) (UniProt Q570C0); test: co-IP; HA tagged and Flag tagged TIR1 (wild type and mutant) co-expressed in Nicotiana leaves; extraction buffer 50 mM Tris pH 7.5, 150 mM NaCl, 100 mM MgCl2, 10% glycerol, 0.1% Nonidet P-40, 10 uM MG132; precipitated with anti-HA affinity gel, blots with anti-FLAG M2 and anti-HA
T1 sequence: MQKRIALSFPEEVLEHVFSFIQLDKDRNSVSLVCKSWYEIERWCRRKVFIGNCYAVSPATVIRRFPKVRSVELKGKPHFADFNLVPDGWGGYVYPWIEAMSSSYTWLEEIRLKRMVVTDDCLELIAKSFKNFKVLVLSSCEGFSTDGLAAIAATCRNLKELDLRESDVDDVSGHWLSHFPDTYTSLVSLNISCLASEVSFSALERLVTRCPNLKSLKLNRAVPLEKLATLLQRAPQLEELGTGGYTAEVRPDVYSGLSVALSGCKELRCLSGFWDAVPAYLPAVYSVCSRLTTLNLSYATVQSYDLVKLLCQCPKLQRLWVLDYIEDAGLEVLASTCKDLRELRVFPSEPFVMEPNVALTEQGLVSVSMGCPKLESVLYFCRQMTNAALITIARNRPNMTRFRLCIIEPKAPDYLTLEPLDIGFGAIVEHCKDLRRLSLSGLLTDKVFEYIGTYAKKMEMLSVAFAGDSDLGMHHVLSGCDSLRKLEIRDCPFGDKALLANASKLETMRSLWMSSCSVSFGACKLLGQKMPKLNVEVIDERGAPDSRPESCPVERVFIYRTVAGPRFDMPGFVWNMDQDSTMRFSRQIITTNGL

[5] = molecular target: TIR1 fusion proteins expressed from the native promoter in Arabidopsis (TIR1-GUS and TIR1-VENUS) (Arabidopsis) (UniProt Q570C0); test: co-IP; extracts of double transgenic pTIR1:TIR1-GUS and pTIR1:gTIR1-VENUS Arabidopsis plants; precipitated with anti-GUS antibody, blots with anti-GUS and anti-GFP
[6] = molecular target: T2, TIR1 (wild type, BiFC fusion) (Arabidopsis) (UniProt Q570C0); test: split reporter; BiFC after transient expression in Nicotiana benthamiana leaves, confocal imaging; some TIR1-TIR1 samples with co-expressed Myc:ASK1 and 100 uM CHX
T2 sequence: T1 sequence

[7] = molecular target: T1, TIR1 (wild type, epitope-tagged, expressed in Nicotiana) (Arabidopsis); test: co-IP; HA:TIR1 and Myc:TIR1 co-injected in Nicotiana leaves; extracts precipitated with anti-Myc antibody, blots with anti-Myc and anti-HA
[8] = molecular target: IAA3, BiFC fusion (Arabidopsis) (UniProt Q38822); test: split reporter; BiFC after transient expression in Nicotiana benthamiana leaves, confocal imaging; some TIR1-TIR1 samples with co-expressed Myc:ASK1 and 100 uM CHX

B1: COI1, BiFC fusion (protein, UniProt O04197 1-592)
chain: MEDPDIKRCKLSCVATVDDVIEQVMTYITDPKDRDSASLVCRRWFKIDSETREHVTMALCYTATPDRLSRRFPNLRSLKLKGKPRAAMFNLIPENWGGYVTPWVTEISNNLRQLKSVHFRRMIVSDLDLDRLAKARADDLETLKLDKCSGFTTDGLLSIVTHCRKIKTLLMEESSFSEKDGKWLHELAQHNTSLEVLNFYMTEFAKISPKDLETIARNCRSLVSVKVGDFEILELVGFFKAAANLEEFCGGSLNEDIGMPEKYMNLVFPRKLCRLGLSYMGPNEMPILFPFAAQIRKLDLLYALLETEDHCTLIQKCPNLEVLETRNVIGDRGLEVLAQYCKQLKRLRIERGADEQGMEDEEGLVSQRGLIALAQGCQELEYMAVYVSDITNESLESIGTYLKNLCDFRLVLLDREERITDLPLDNGVRSLLIGCKKLRRFAFYLRQGGLTDLGLSYIGQYSPNVRWMLLGYVGESDEGLMEFSRGCPNLQKLEMRGCCFSERAIAAAVTKLPSLRYLWVQGYRASMTGQDLMQMARPYWNIELIPSRRVPEVNQQGEIREMEHPAHILAYYSLAGQRTDCPTTVRVLKEPI
binding [1]: binds

B5: TIR1 fusion proteins expressed from the native promoter in Arabidopsis (TIR1-GUS and TIR1-VENUS) (protein, UniProt Q570C0 1-594)
chain: T1 sequence
binding [5]: binds

B7: TIR1 (wild type, epitope-tagged, expressed in Nicotiana) (protein, UniProt Q570C0 1-594)
chain: T1 sequence
binding [7]: binds

B10: D170A-TIR1 (BiFC fusion) (protein, UniProt Q570C0 1-594)
chain: T1 sequence with D170A
binding [6]: no binding

Results, then the binder that gave them:

binding [2]: binds
B2: COI1, yeast two-hybrid fusion (protein, UniProt O04197 1-592)
chain: B1 chain

binding [3]: binds
B3: TIR1 (wild type, yeast two-hybrid fusion) (protein, UniProt Q570C0 1-594)
chain: T1 sequence

binding [4]: no binding
B4: C140S-tir1 (epitope-tagged, expressed in Nicotiana for the co-IP) (protein, UniProt Q570C0 1-594)
chain: T1 sequence with C140S

binding [6]: no binding
B6: G142A TIR1 (BiFC fusion) (protein, UniProt Q570C0 1-594)
chain: T1 sequence with G142A

binding [6]: no binding
B8: G147A TIR1 (BiFC fusion) (protein, UniProt Q570C0 1-594)
chain: T1 sequence with G147A

binding [6]: no binding
B9: I151A TIR1 (BiFC fusion) (protein, UniProt Q570C0 1-594)
chain: T1 sequence with I151A

binding [8]: binds
B11: IAA3, BiFC fusion (protein, UniProt Q38822 1-189)
chain: MDEFVNLKETELRLGLPGTDNVCEAKERVSCCNNNNKRVLSTDTEKEIESSSRKTETSPPRKAQIVGWPPVRSYRKNNIQSKKNESEHEGQGIYVKVSMDGAPYLRKIDLSCYKGYSELLKALEVMFKFSVGEYFERDGYKGSDFVPTYEDKDGDWMLIGDVPWEMFICTCKRLRIMKGSEAKGLGCGV
